In the supplement of paper PMC3334620:
Whole data set: some 33,000 sequences, median “E-score (-0.5 to 0.5)” near -0.016, cut for the highest 2% near 0.31. Some of the results follow.

molecular target: Cst6 (UniProt P40535); assay: PBM E-score (8-mer binding enrichment) (E-score (-0.5 to 0.5)); higher = stronger / more preferred TF binding; most listed sequences are background and not binding sites; settings: protein concentration: 200 nM; construct: GST-DNA-binding domain
Summary of the method: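 The E-score, a modified Wilcoxon-Mann-Whitney statistic, was computed by the Universal PBM Analysis Suite for every ungapped eight-base word pooled with its reverse complement. Scans behind it were normalised with masliner after bound GST-tagged yeast transcription factors were detected with fluorescent anti-GST. The proteins, at about 100-200 nM, had been applied to universal all-10-mer Agilent arrays made double-stranded by primer extension.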

| Sequence | PBM E-score |
| --- | --- |
| AATAAGCT | 0.12 |
| ACCACCAT | -0.072 |
| GCTATAGC | -0.258 |
| AAGCTAGG | -0.161 |
| CCCCAGTC | -0.298 |
| CAGCAATA | 0.166 |
| AGGGCTTC | -0.0889 |
| ATCAAGAT | 0.0189 |
| GGCCGATA | -0.0736 |
| ACCTATCG | -0.0706 |
| TTCACGAA | -0.0452 |
| ATGGCTTA | -0.0638 |
| TACTTTAA | 0.155 |
| ACAAGGGG | -0.253 |
| CAGGCCCC | -0.316 |
| CCAATATA | -0.0204 |
| CATTCCGG | -0.137 |
| GCCATTAC | 0.133 |
| AGGGCAAA | -0.153 |
| GCGCAAAC | -0.0537 |
| GCTGCAAC | -0.167 |
| ATGTGTTC | 0.0414 |
| AGCGAGGA | -0.0398 |
| CATGAAAG | 0.082 |

| Sequence | PBM E-score |
| --- | --- |
| CATACGGA | 0.049 |
| CCGGGCGC | -0.213 |
| ATGCCCGC | -0.104 |
| CACATGAG | -0.185 |
| CAACTACC | -0.0515 |
| CGAGCGCA | -0.0284 |
| TAGACGCA | -0.042 |
| ACTTAAAC | 0.0697 |
| GCCAGCAC | -0.0819 |
| TCCGGAAA | -0.135 |
| CGCACCCG | -0.117 |
| TCGACGAA | 0.0792 |
| GTTAGGAA | 0.0338 |
| ACTACAGC | -0.192 |
| CTGTCCAC | -0.153 |
| AAATATAA | 0.233 |
| CCACGAGG | -0.141 |
| ACAATTTG | 0.00944 |
| GGTGGGGA | -0.0282 |
| AAACTGTA | 0.111 |
| AGTGTAAT | 0.0574 |
| CACTAAAC | 0.136 |
| AAACGGCG | 0.369 |
| CCGGGCGA | -0.295 |

| Sequence | PBM E-score |
| --- | --- |
| ATGACACG | 0.256 |
| AAACCGAG | -0.0291 |
| AGCGTCGC | -0.105 |
| AGGACGGA | -0.231 |
| GCATAATA | 0.227 |
| AAGCAGGG | -0.262 |
| CCGAAATC | 0.0746 |
| CGTCTTAC | 0.0262 |
| CCCTTACG | 0.0214 |
| TGTGCAAA | -0.0128 |
| CATATCTA | 0.122 |
| AGCGGGTA | -0.00685 |
| GGCTCAAC | -0.0841 |
| TGTTGGAA | 0.0885 |
| CATGCCCC | -0.109 |
| AACACGCA | -0.0236 |
| CGTCTCCC | -0.107 |
| AGACTTGA | -0.0852 |
| GCATGCGC | 0.139 |
| AGTACAAT | 0.158 |
| GAGCGTGC | -0.073 |
| AGCAGATC | 0.0455 |
| ATATTTGC | 0.249 |
| ATCGCAGG | -0.199 |

| Sequence | PBM E-score |
| --- | --- |
| CACTTTAG | -0.0355 |
| ATTGAGAC | 0.127 |
| GGATGTAA | 0.191 |
| GGATTCTA | -0.132 |
| CTCGTAGC | -0.154 |
| ATCTGTTC | -0.0152 |
| GCAGAGGC | -0.312 |
| AAATAACG | 0.263 |
| ATCGCCTG | -0.222 |
| CGGGCGAG | -0.16 |
| AGACGCAA | 0.0971 |
| GGGCAGAA | 0.125 |
| CGGATCAA | 0.175 |
| CCGCCGCA | 0.0944 |
| CTCTCATC | -0.0922 |
| CCCGGATA | -0.319 |
| CGTCCACA | -0.0335 |
| ATGATTTA | 0.277 |
| ACACCGAC | 0.0715 |
| GGCAAATA | 0.259 |
| CATCGGGA | 0.0725 |
| CAGGAGGG | -0.256 |
